Structures are written as SMILES. Counter-ions that a name gives are not always drawn. Some of the results follow. Most values come without repeats; read them as rough.

For this experiment, the system named is mouse mesenchymal chondrosarcoma cells (HEY1-NCOA2). In words: XTT absorbance relative to DMSO control (cell viability) (fraction of DMSO control); higher = more viable cells / less growth inhibition. For orientation: Tetrazolium assays rely on reduction of a dye to a coloured formazan, in cell work by metabolically active cells.
For the compound `O=S(=O)(c1cccc2cnccc12)N1CCCNCC1`, the XTT absorbance amounted to 0.922.
`CCN(CC)CCNC(=O)c1c(C)[nH]c(/C=C2\C(=O)Nc3ccc(Cl)cc32)c1C` showed an XTT absorbance of 0.742.
The value for `Cc1cn(-c2cc(NC(=O)c3ccc(C)c(Nc4nccc(-c5cccnc5)n4)c3)cc(C(F)(F)F)c2)cn1` [nilotinib] was 0.954; that for `CC#C[C@]1(O)CC[C@H]2[C@@H]3CCC4=CC(=O)CCC4=C3[C@@H](c3ccc(N(C)C)cc3)C[C@@]21C` [Mifepristone] was 0.973.
As for `C[C@]1(O)C[C@@H](c2nc(-c3ccc4ccc(-c5ccccc5)nc4c3)c3c(N)nccn32)C1`, the XTT absorbance turned out to be 0.892.
As to `c1cc(CN2CCCNCCNCCCNCC2)ccc1CN1CCCNCCNCCCNCC1` [AMD3100 octahydrochloride], the XTT absorbance turned out to be 1.1.
The value for `Cc1cc(C=C2C(=O)C=CC2=O)cc(C)c1O` was 0.945; that for `O=C(Nc1ccc([N+](=O)[O-])cc1O)Nc1ccccc1Br` was 0.825; that for `CCCCCCCCCCC1=C(C)C(=O)C(OC)=C(OC)C1=O` [Decylubiquinone] was 0.952.
As for `Oc1ccc(-c2nc(-c3ccc(F)cc3)c(-c3ccncc3)[nH]2)cc1`, the XTT absorbance is 0.908.
The value for `CC(Cc1ccc(O)c(O)c1)C(C)Cc1ccc(O)c(O)c1` (configuration not stated) [Nordihydroguaiaretic acid (NDGA)] was 0.905; that for `Cc1c2oc3c(C)ccc(C(=O)N[C@@H]4C(=O)N[C@H](C(C)C)C(=O)N5CCC[C@H]5C(=O)N(C)CC(=O)N(C)[C@@H](C(C)C)C(=O)O[C@@H]4C)c3nc-2c(C(=O)N[C@@H]2C(=O)N[C@H](C(C)C)C(=O)N3CCC[C@H]3C(=O)N(C)CC(=O)N(C)[C@@H](C(C)C)C(=O)O[C@@H]2C)c(N)c1=O` [Actinomycin D] was 0.238.

For the origin of these results see the supplement of paper PMC10322689.
